Assay results: the supplement of paper PMC4967469
The IC50 comes from the fitted curve, where viability falls to half of the control; a fit beyond the top or the lowest dose is shown as a bound at that dose. AUC, from the same fit, is the share of area under the viability curve across the 256-fold dose range; the more sensitive the line, the further below 1. For some assays here: Any top dose called inferred is not printed in the source and was worked back from the curve model. For some assays here: Drugs with an entry number were screened twice under separate entries, and the two screens often disagree.

Tests used:
Experiment in all cases: Viability of human cancer cell lines after 72 h of drug (GDSC screen)
LFM-A13 = compound: C/C(O)=C(\C#N)C(=O)Nc1cc(Br)ccc1Br [LFM-A13]; conditions: top dose 16 µM; top dose inferred
Method: (§1)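 Human cancer cell lines in 384-well plates, medium with 10% serum, drug for 72 h over a 256-fold dose range (nine 2-fold or five 4-fold steps up to the top dose). Adherent lines were fixed and stained with the nucleic acid dye Syto60, suspension lines read with resazurin; signal relative to control wells, capped at 0 and 100%. One two-parameter sigmoid per drug and line, fitted in a mixed model over all curves with the slope shared within a line.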

TW-37 = compound: CC(C)c1ccccc1Cc1cc(C(=O)Nc2ccc(S(=O)(=O)c3ccccc3C(C)(C)C)cc2)c(O)c(O)c1O [TW-37]; conditions: top dose 5 µM
Method: as §1

Bicalutamide = compound: CC(O)(CS(=O)(=O)c1ccc(F)cc1)C(=O)Nc1ccc(C#N)c(C(F)(F)F)c1 [Bicalutamide]; conditions: top dose inferred
Method: as §1

AUY922 = compound: CCNC(=O)c1noc(-c2cc(C(C)C)c(O)cc2O)c1-c1ccc(CN2CCOCC2)cc1 [AUY922]; conditions: top dose 0.256 µM; top dose inferred
Method: as §1

KIN001-270 = compound: Cc1ccc(Nc2cc(-c3cccc(N4C(=O)c5ccccc5C4=O)c3)ncn2)cc1NS(C)(=O)=O [KIN001-270]; conditions: top dose 20 µM; top dose inferred
Method: as §1

Nilotinib = compound: Cc1cn(-c2cc(NC(=O)c3ccc(C)c(Nc4nccc(-c5cccnc5)n4)c3)cc(C(F)(F)F)c2)cn1 [Nilotinib]; conditions: top dose 2 µM
Method: as §1

GNF-2 = compound: NC(=O)c1cccc(-c2cc(Nc3ccc(OC(F)(F)F)cc3)ncn2)c1 [GNF-2]; conditions: top dose 1.28 µM; top dose inferred
Method: as §1

Gemcitabine = compound: Nc1ccn([C@@H]2O[C@H](CO)[C@@H](O)C2(F)F)c(=O)n1 [Gemcitabine]; conditions: top dose 1.024 µM
Method: as §1

T0901317 = compound: O=S(=O)(c1ccccc1)N(CC(F)(F)F)c1ccc(C(O)(C(F)(F)F)C(F)(F)F)cc1 [T0901317]; conditions: top dose 10.24 µM; top dose inferred
Method: as §1

MP470 = compound: S=C(NCc1ccc2c(c1)OCO2)N1CCN(c2ncnc3c2oc2ccccc23)CC1 [MP470]; conditions: top dose 20 µM; top dose inferred
Method: as §1

[1] = top dose 1.024 µM, screen: GDSC drug entry 150
[2] = top dose 10 µM, screen: GDSC drug entry 1502

Cell Line | AUC (LFM-A13) | IC50 (LFM-A13) [µM] | AUC (TW-37) | IC50 (TW-37) [µM] | AUC (Bicalutamide; [1]) | IC50 (Bicalutamide; [1]) [µM] | AUC (Bicalutamide; [2]) | IC50 (Bicalutamide; [2]) [µM] | AUC (AUY922) | IC50 (AUY922) [µM] | AUC (KIN001-270) | IC50 (KIN001-270) [µM] | AUC (Nilotinib) | IC50 (Nilotinib) [µM] | AUC (GNF-2) | IC50 (GNF-2) [µM] | AUC (Gemcitabine) | IC50 (Gemcitabine) [µM] | AUC (T0901317) | IC50 (T0901317) [µM] | AUC (MP470) | IC50 (MP470) [µM]
NOMO-1 (acute myeloid leukaemia, suspension) | 0.952 | > 16 | 0.554 | 0.448 | 0.972 | > 1.02 | 0.953 | > 10 | 0.653 | 0.0451 | 0.96 | > 20 | 0.898 | > 2 | 0.98 | > 1.28 | 0.274 | 0.0132 | 0.903 | > 10.2 | 0.922 | > 20
NTERA-2 cl.D1 (testis, adherent) | 0.979 | > 16 | 0.329 | 0.105 | 0.985 | > 1.02 | 0.928 | > 10 | 0.549 | 0.0218 | 0.926 | > 20 | 0.985 | > 2 | 0.974 | > 1.28 | 0.192 | 0.00781 | 0.98 | > 10.2 | 0.926 | > 20
NU-DUL-1 (B-cell lymphoma, suspension) | 0.99 | > 16 | 0.491 | 0.296 | 0.993 | > 1.02 | 0.988 | > 10 | 0.705 | 0.0526 | 0.95 | > 20 | 0.992 | > 2 | 0.993 | > 1.28 | 0.03 | < 0.004 | 0.971 | > 10.2 | 0.861 | 11.8
OCI-AML2 (acute myeloid leukaemia, suspension) | 0.993 | > 16 | 0.548 | 0.41 | 0.995 | > 1.02 | 0.994 | > 10 | 0.406 | 0.00947 | 0.951 | > 20 | 0.995 | > 2 | 0.995 | > 1.28 | 0.115 | 0.00643 | 0.959 | > 10.2 | 0.577 | 1.92
OCI-AML3 (acute myeloid leukaemia, suspension) | 0.991 | > 16 | 0.8 | 2.04 | 0.991 | > 1.02 | 0.99 | > 10 | 0.743 | 0.0702 | 0.974 | > 20 | 0.987 | > 2 | 0.991 | > 1.28 | 0.165 | 0.00753 | 0.949 | > 10.2 | 0.858 | 12.8
OCI-AML5 (acute myeloid leukaemia, suspension) | 0.953 | > 16 | 0.623 | 0.658 | 0.988 | > 1.02 | 0.987 | > 10 | 0.462 | 0.0127 | 0.948 | > 20 | 0.975 | > 2 | 0.964 | > 1.28 | 0.237 | 0.0121 | 0.918 | > 10.2 | 0.89 | 19.7
OCI-LY-19 (B-cell lymphoma, suspension) | 0.932 | > 16 | 0.411 | 0.182 | 0.987 | > 1.02 | 0.982 | > 10 | 0.465 | 0.0129 | 0.9 | > 20 | 0.981 | > 2 | 0.988 | > 1.28 | 0.091 | < 0.004 | 0.978 | > 10.2 | 0.568 | 1.89
OCUB-M (breast, adherent) | 0.979 | > 16 | 0.369 | 0.144 | 0.989 | > 1.02 | 0.971 | > 10 | 0.559 | 0.0227 | 0.949 | > 20 | 0.977 | > 2 | 0.982 | > 1.28 | 0.178 | 0.00825 | 0.939 | > 10.2 | 0.316 | 0.414
ONS-76 (medulloblastoma, adherent) | 0.976 | > 16 | 0.497 | 0.306 | 0.985 | > 1.02 | 0.974 | > 10 | 0.594 |  | 0.948 | > 20 | 0.965 | > 2 | 0.985 | > 1.28 | 0.328 | 0.0203 | 0.984 | > 10.2 | 0.967 | > 20
OPM-2 (myeloma, suspension) | 0.982 | > 16 | 0.924 | > 5 | 0.994 | > 1.02 | 0.993 | > 10 | 0.669 | 0.0427 | 0.96 | > 20 | 0.994 | > 2 | 0.994 | > 1.28 | 0.927 | > 1.02 | 0.988 | > 10.2 | 0.97 | > 20
OS-RC-2 (kidney, adherent) | 0.941 | > 16 | 0.619 | 0.768 | 0.971 | > 1.02 | 0.975 | > 10 | 0.616 | 0.0386 | 0.971 | > 20 | 0.954 | > 2 | 0.971 | > 1.28 | 0.316 | 0.0155 | 0.974 | > 10.2 | 0.915 | > 20
OVCAR-4 (ovary, adherent) | 0.948 | > 16 | 0.592 | 0.634 | 0.976 | > 1.02 | 0.954 | > 10 | 0.566 | 0.0264 | 0.951 | > 20 | 0.964 | > 2 | 0.935 | > 1.28 | 0.662 | 0.225 | 0.965 | > 10.2 | 0.883 | > 20
